Assay results from the supplement of paper PMC8728848.
This is one part of the list.

Experiments:
Test in all cases: glycan array binding signal (z-score within array); higher = stronger binding
Details in all cases: glycan notation: IUPAC condensed, linker removed; mutation: H59Q
[1] = target: Neu5Ac(a2-6)Gal(b1-4)GlcNAc(b1-2)Man(a1-3)[GlcNAc(b1-4)][Neu5Ac(a2-6)Gal(b1-4)GlcNAc(b1-2)Man(a1-6)]Man(b1-4)GlcNAc(b1-4)GlcNAc
Method in brief: (§1)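 Glycan array data came from 3228 arrays in the Consortium for Functional Glycomics database, and only arrays with an available protein sequence were kept. Glycan names were put into IUPAC-condensed notation, and columns mapping to the same glycan were averaged. The binding signal is a within-array Z-score, averaged across arrays of one protein sequence run at different concentrations or buffers and across linkers. A negative Z-score can be read as non-binding.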

[2] = target: Neu5Ac(a2-6)Gal(b1-4)GlcNAc(b1-2)Man(a1-3)[Man(a1-6)]Man(b1-4)GlcNAc(b1-4)GlcNAc
Method in brief: as §1

[3] = target: Neu5Ac(a2-6)Gal(b1-4)GlcNAc(b1-2)Man(a1-3)[Neu5Ac(a2-3)Gal(b1-4)GlcNAc(b1-2)Man(a1-6)]Man(b1-4)GlcNAc(b1-4)GlcNAc
Method in brief: as §1

[4] = target: Neu5Ac(a2-6)Gal(b1-4)GlcNAc(b1-2)Man(a1-3)[Neu5Ac(a2-6)Gal(b1-4)GlcNAc(b1-2)Man(a1-6)]Man(b1-4)GlcNAc(b1-4)GlcNAc
Method in brief: as §1

[5] = target: Neu5Ac(a2-6)Gal(b1-4)GlcNAc(b1-2)Man(a1-3)[Neu5Ac(a2-6)Gal(b1-4)GlcNAc(b1-2)Man(a1-6)]Man(b1-4)GlcNAc(b1-4)[Fuc(a1-6)]GlcNAc
Method in brief: as §1

[6] = target: Neu5Ac(a2-6)Gal(b1-4)GlcNAc(b1-2)Man(a1-6)Man(b1-4)GlcNAc(b1-4)GlcNAc
Method in brief: as §1

[7] = target: Neu5Ac(a2-6)Gal(b1-4)GlcNAc(b1-2)Man(a1-6)[Gal(b1-4)GlcNAc(b1-2)Man(a1-3)]Man(b1-4)GlcNAc(b1-4)GlcNAc
Method in brief: as §1

[8] = target: Neu5Ac(a2-6)Gal(b1-4)GlcNAc(b1-2)Man(a1-6)[GlcNAc(b1-2)Man(a1-3)]Man(b1-4)GlcNAc(b1-4)GlcNAc
Method in brief: as §1

[9] = target: Neu5Ac(a2-6)Gal(b1-4)GlcNAc(b1-2)Man(a1-6)[Man(a1-3)]Man(b1-4)GlcNAc(b1-4)GlcNAc
Method in brief: as §1

[10] = target: Neu5Ac(a2-6)Gal(b1-4)GlcNAc(b1-2)[Neu5Ac(a2-6)Gal(b1-4)GlcNAc(b1-4)]Man(a1-3)[GlcNAc(b1-4)][Neu5Ac(a2-6)Gal(b1-4)GlcNAc(b1-2)[Neu5Ac(a2-6)Gal(b1-4)GlcNAc(b1-6)]Man(a1-6)]Man(b1-4)GlcNAc(b1-4)GlcNAc
Method in brief: as §1

[11] = target: Neu5Ac(a2-6)Gal(b1-4)GlcNAc(b1-2)[Neu5Ac(a2-6)Gal(b1-4)GlcNAc(b1-4)]Man(a1-3)[GlcNAc(b1-4)][Neu5Ac(a2-6)Gal(b1-4)GlcNAc(b1-4)Man(a1-6)]Man(b1-4)GlcNAc(b1-4)GlcNAc
Method in brief: as §1

[12] = target: Neu5Ac(a2-6)Gal(b1-4)GlcNAc(b1-2)[Neu5Ac(a2-6)Gal(b1-4)GlcNAc(b1-6)]Man(a1-6)[Neu5Ac(a2-6)Gal(b1-4)GlcNAc(b1-2)Man(a1-3)][GlcNAc(b1-4)]Man(b1-4)GlcNAc(b1-4)GlcNAc
Method in brief: as §1

[13] = target: Neu5Ac(a2-6)Gal(b1-4)GlcNAc(b1-3)Gal(b1-3)GlcNAc
Method in brief: as §1

[14] = target: Neu5Ac(a2-6)Gal(b1-4)GlcNAc(b1-3)Gal(b1-4)GlcNAc
Method in brief: as §1

[15] = target: Neu5Ac(a2-6)Gal(b1-4)GlcNAc(b1-3)Gal(b1-4)GlcNAc(b1-2)Man(a1-3)[Neu5Ac(a2-6)Gal(b1-4)GlcNAc(b1-3)Gal(b1-4)GlcNAc(b1-2)Man(a1-6)]GalNAc
Method in brief: as §1

[16] = target: Neu5Ac(a2-6)Gal(b1-4)GlcNAc(b1-3)Gal(b1-4)GlcNAc(b1-3)Gal(b1-4)GlcNAc
Method in brief: as §1

[17] = target: Neu5Ac(a2-6)Gal(b1-4)GlcNAc(b1-3)Gal(b1-4)GlcNAc(b1-3)Gal(b1-4)GlcNAc(b1-2)Man(a1-3)[Neu5Ac(a2-6)Gal(b1-4)GlcNAc(b1-3)Gal(b1-4)GlcNAc(b1-3)Gal(b1-4)GlcNAc(b1-2)Man(a1-6)]GalNAc
Method in brief: as §1

[18] = target: Neu5Ac(a2-6)Gal(b1-4)GlcNAc(b1-3)Gal(b1-4)GlcNAc(b1-3)GalNAc
Method in brief: as §1

[19] = target: Neu5Ac(a2-6)Gal(b1-4)GlcNAc(b1-3)Gal(b1-4)GlcNAc(b1-3)[Neu5Ac(a2-6)Gal(b1-4)GlcNAc(b1-3)Gal(b1-4)GlcNAc(b1-6)]GalNAc
Method in brief: as §1

[20] = target: Neu5Ac(a2-6)Gal(b1-4)GlcNAc(b1-3)Gal(b1-4)GlcNAc(b1-6)[Gal(b1-3)]GalNAc
Method in brief: as §1

[21] = target: Neu5Ac(a2-6)Gal(b1-4)GlcNAc(b1-3)Gal(b1-4)[Fuc(a1-3)]GlcNAc(b1-3)Gal(b1-4)[Fuc(a1-3)]GlcNAc
Method in brief: as §1

[22] = target: Neu5Ac(a2-6)Gal(b1-4)GlcNAc(b1-3)GalNAc
Method in brief: as §1

[23] = target: Neu5Ac(a2-6)Gal(b1-4)GlcNAc(b1-3)[Neu5Ac(a2-6)Gal(b1-4)GlcNAc(b1-6)]GalNAc
Method in brief: as §1

[24] = target: Neu5Ac(a2-6)Gal(b1-4)GlcNAc(b1-6)GalNAc
Method in brief: as §1

[25] = target: Neu5Ac(a2-6)Gal(b1-4)GlcNAc(b1-6)[Gal(b1-3)GlcNAc(b1-3)]Gal(b1-4)Glc
Method in brief: as §1

[26] = target: Neu5Ac(a2-6)Gal(b1-4)GlcNAc(b1-6)[Gal(b1-3)]GalNAc
Method in brief: as §1

[27] = target: Neu5Ac(a2-6)Gal(b1-4)GlcNAc6S
Method in brief: as §1

Neu5Ac(a2-6)GalNAc = target: Neu5Ac(a2-6)GalNAc
Method in brief: as §1

[28] = target: Neu5Ac(a2-6)GalNAc(b1-4)GlcNAc
Method in brief: as §1

[29] = target: Neu5Ac(a2-6)GalNAc(b1-4)GlcNAc6S
Method in brief: as §1

[30] = target: Neu5Ac(a2-6)GlcNAc(b1-4)GlcNAc
Method in brief: as §1

B1: rAAL-H59Q (Agrocybe aegerita), Q6WY08 (protein)
chain: MQGVNIYNISAGTSVDLAAPVTTGDIVTFFSSALNLNAGAGNPNNTTLNLFAENGAYLLQIAFRLQENVIIFNSRQPDGPWLVEQRVSDVANQFAGIDGKAMVTVFDHGDKYQVVINEKTVIQYTKQISGLTLSLSYNATEETSIFSTVVEAVTYTGLALEHHHHHH
Q: Which “glycan array binding signal (z-score)” value [1] does the source give for B1 here?
A: Its value is -0.099.

Q: And the “glycan array binding signal (z-score)” value [2]?
A: Its value is 0.009.

Q: And the “glycan array binding signal (z-score)” value [3]?
A: The value was -0.068.

Q: What about the “glycan array binding signal (z-score)” value [4] of the same binder?
A: The value was -0.091.

Q: And the “glycan array binding signal (z-score)” value [5]?
A: The value was -0.01.

Q: And the “glycan array binding signal (z-score)” value [6]?
A: Its value is -0.059.

Q: And the “glycan array binding signal (z-score)” value [7]?
A: Its value is -0.095.

Q: And the “glycan array binding signal (z-score)” value [8]?
A: Its value is -0.115.

Q: And the “glycan array binding signal (z-score)” value [9]?
A: Its value is -0.101.

Q: What about the “glycan array binding signal (z-score)” value [10] of the same binder?
A: The value was -0.077.

Q: And the “glycan array binding signal (z-score)” value [11]?
A: The value was -0.165.

Q: What about the “glycan array binding signal (z-score)” value [12] of the same binder?
A: The value was -0.128.

Q: And the “glycan array binding signal (z-score)” value [13]?
A: The value was -0.124.

Q: What about the “glycan array binding signal (z-score)” value [14] of the same binder?
A: Its value is -0.142.

Q: And the “glycan array binding signal (z-score)” value [15]?
A: The value was -0.079.

Q: What about the “glycan array binding signal (z-score)” value [16] of the same binder?
A: The value was -0.126.

Q: What about the “glycan array binding signal (z-score)” value [17] of the same binder?
A: The value was -0.009.

Q: And the “glycan array binding signal (z-score)” value [18]?
A: The value was -0.144.

Q: What about the “glycan array binding signal (z-score)” value [19] of the same binder?
A: The value was -0.036.

Q: What about the “glycan array binding signal (z-score)” value [20] of the same binder?
A: Its value is -0.087.

Q: And the “glycan array binding signal (z-score)” value [21]?
A: Its value is -0.098.

Q: And the “glycan array binding signal (z-score)” value [22]?
A: Its value is -0.049.

Q: What about the “glycan array binding signal (z-score)” value [23] of the same binder?
A: The value was -0.033.

Q: What about the “glycan array binding signal (z-score)” value [24] of the same binder?
A: Its value is -0.076.

Q: What about the “glycan array binding signal (z-score)” value [25] of the same binder?
A: The value was -0.112.

Q: What about the “glycan array binding signal (z-score)” value [26] of the same binder?
A: Its value is -0.099.

Q: And the “glycan array binding signal (z-score)” value [27]?
A: The value was -0.104.

Q: And the “glycan array binding signal (z-score)” value (Neu5Ac(a2-6)GalNAc)?
A: The value was -0.085.

Q: And the “glycan array binding signal (z-score)” value [28]?
A: Its value is -0.112.

Q: And the “glycan array binding signal (z-score)” value [29]?
A: Its value is -0.041.

Q: What about the “glycan array binding signal (z-score)” value [30] of the same binder?
A: The value was -0.051.
